This assay concerns the target T1, E. coli cysteine desulfurase (IscS) (E. coli), P0A6B7.
T1 chain: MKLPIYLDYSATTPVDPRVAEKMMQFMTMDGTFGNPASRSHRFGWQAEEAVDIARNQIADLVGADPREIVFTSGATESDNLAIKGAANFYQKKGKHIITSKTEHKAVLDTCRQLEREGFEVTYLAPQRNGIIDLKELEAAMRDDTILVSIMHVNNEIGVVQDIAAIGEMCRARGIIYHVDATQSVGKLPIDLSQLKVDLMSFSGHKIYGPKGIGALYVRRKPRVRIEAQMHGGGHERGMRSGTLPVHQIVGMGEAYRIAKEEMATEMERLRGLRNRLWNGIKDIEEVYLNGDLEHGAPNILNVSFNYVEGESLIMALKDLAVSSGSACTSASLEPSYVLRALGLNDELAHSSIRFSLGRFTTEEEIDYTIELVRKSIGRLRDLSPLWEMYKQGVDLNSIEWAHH
Nature of the assay: amino acid analysis + other: SAXS. As to conditions: remark: other sources report otherwise.

This passage reports stoichiometry N results from paper PMC5404276.

B1: E. coli cysteine desulfurase (IscS), P0A6B7 1-404 (enzyme)
chain: T1 chain
A word on the stoichiometry N: it is a count of units in the complex or per binding partner. In the case of B1, the stoichiometry N is 2.
